According to ChEMBL document CHEMBL4888484, “Replenishing the malaria drug discovery pipeline: Screening and hit evaluation of the MMV Hit Generation Library 1 (HGL1) against asexual blood stage Plasmodium falciparum ,using a nano luciferase reporter read-out” (2022):
The whole screen tested about 150,000 compounds, of which about 540 (0.36%) showed an effect of 50% or more. This is one part of the list.

system: Plasmodium falciparum; assay: Primary screen in NF54 nanoGlo assay, in single point, at 2uM, 72h; a lower Z score goes with more inhibition; assay type: functional, Erythrocyte; conditions: timepoint 72 hour

Row | SMILES | % Inhibition [%] | Z score
1 | Cc1ccc(OCc2ccccc2)c(NC(=O)N2CC[C@H](CO)C2)c1 | 0 | -0.03
2 | Cc1ccc(-c2coc(-c3ccc(NC(=O)COc4ccccc4C)cc3)n2)c(C)c1 | -2 | 0.43
3 | CCc1ccc(S(=O)(=O)C2CS(=O)(=O)CC2NC2CCCCCC2)cc1 (stereo not given) | -6 | 0.71
4 | COc1cccc(CNC(=O)Cn2nc3c4cc(F)ccc4ncn3c2=O)c1 | -2 | 0.29
5 | CC(C)NC(=O)N1CC[C@@](C)(O)[C@@H](NC(=O)CC(C)(C)C)[C@@H]1c1cccs1 | -15 | 2.36
6 | Cc1ccc(C)c(-n2nc(-c3ccccc3)nc2Cn2cc(C)c(=O)[nH]c2=O)c1 | 5 | -0.65
7 | Cc1cccc(NC(=O)[C@@H](C#N)C(=O)C2CC2)c1 | -8 | 1.1
8 | COc1ccc(C(=O)N2CCC3(CC[C@@H]3N3CCOCC3)CC2)cn1 | -6 | 0.72
9 | CCCN(CC#N)S(=O)(=O)c1cc(C)ccc1Br | -11 | 1.75
10 | CC1CN(S(=O)(=O)CC(C)(C)C)CC2(CCOC2)O1 (stereo not given) | -11 | 1
11 | O=C(NCCc1cccnc1)N1CCCC[C@H](N2CCCC2)C1 | 3 | -0.34
12 | O=C(Nc1cc(Cl)ccc1Cl)[C@@H]1CCCN1C(=O)c1cccnc1 | 14 | -1.74
13 | CC1CCC(C(N)=O)CN1C(=O)CN1Cc2ccccc2C1 (stereo not given) | -9 | 1.71
14 | CC1CCCN(C(=O)CC2(CC(=O)N3CCCC(C)C3)CCCC2)C1 (stereo not given) | -7 | 0.94
15 | Cn1cc(C(=O)C(=O)NCC2CCC2)cn1 | 29 | -3.94
16 | O=C(N[C@H]1CN(C(=O)C2CCC2)C[C@@H]1C1CC1)c1ccnc(-n2cnnc2)c1 | 1 | -0.29
17 | Cc1csc(CCCNC(=O)NC[C@H](O)c2ccccc2C)n1 | -5 | 0.5
18 | CC(C)(C)c1nc(Cn2c3c(sc2=O)CCCC3)no1 | 38 | -4.34
19 | Cc1cccc(-n2nc(CC(N)=O)nc2-c2cnc(C3CC3)nc2C)c1C | -13 | 1.3
20 | CCN(c1ccc(C(=O)Nc2ccccc2C(=O)N2CCCCC2)cc1)S(C)(=O)=O | -14 | 2.1
21 | Cc1ccc(CCC(=O)NC[C@H](c2ccnn2C)C(C)C)c(C)c1 | -3 | 0.33
22 | Cc1ccc(-c2nocc2CCC(=O)NCC2CC2)cc1 | -7 | 0.98

Row | SMILES | % Inhibition [%] | Z score
23 | CCc1nsc(N2CCC3(CC2)CNC(=O)c2ccccc2O3)n1 | 0 | 0
24 | O=C(c1c[nH]c(=O)[nH]1)N1CCN(Cc2ccc3ccccc3n2)CC1 | 2 | -0.32
25 | O=C(NCc1ccoc1)c1ccn(CC(F)F)n1 | -14 | 1.81
26 | CC(C)c1nsc(N[C@H]2CCS(=O)(=O)C3(CCC3)C2)n1 | -18 | 1.84
27 | CCc1cnc(N)nc1NCc1ccc2cc[nH]c2c1 | -13 | 1.82
28 | Cc1ccc(C(=O)NCC(=O)Nc2nc3cc4c(cc3s2)OCCO4)cc1 | -7 | 1.25
29 | C[C@H]1c2cccn2CCN1CC(=O)N(C)Cc1ccco1 | -5 | 0.7
30 | O=C1N[C@@H](c2cccc3c2OCCCO3)Nc2ncccc21 | -10 | 1.22
31 | CC(C)=CC1C(C(=O)N2CCCC(C(N)=O)C2)C1(C)C (stereo not given) | -9 | 1.48
32 | COc1ccc(-c2c(C)c(-c3nnc(C)o3)nn2-c2ccc(C(=O)NCCC#N)cc2)cc1 | 14 | -1.92
33 | O=C(NC1CCCc2c1[nH]c1ccc(F)cc21)[C@@H](c1ccccc1)n1cnnn1 (stereo not given in full) | 7 | -0.81
34 | Cc1ccc([C@H]2CN(CC(=O)Nc3cn(C)nc3C)C[C@@H]2N(C)C)cc1 | -12 | 2.27
35 | CC(C)c1cc(C(=O)N(C)C2CCS(=O)(=O)CC2)n(C)n1 | 3 | -0.49
36 | NC[C@H]1Cc2cc(-c3ccc4ccccc4n3)cc(Cl)c2O1 | 19 | -2.69
37 | COc1ccc(C2CN(Cc3cccc(C)c3)CC2CN(Cc2ccc(F)cc2)C(C)=O)cc1 (stereo not given) | -9 | 0.88
38 | Cc1nc(N)sc1CC(=O)NC[C@H]1CCCCN1C | -9 | 1.21
39 | CN1CCCC[C@H]1C(=O)NCc1c(F)c(F)cc(F)c1F | -7 | 0.94
40 | COc1ccccc1C[C@H]1CCCN(S(=O)(=O)N2CCCC2)C1 | -15 | 1.53
41 | Cc1c(CN2CC(N3CCCCC3)C2)oc2ccccc12 | -5 | 0.71
42 | Cc1ccc2nc(Cc3ccccc3)c(NC(=O)C3CCCCC3)n2c1 | -7 | 1.06
43 | CC[C@@H]1OC2(CCN(C(=O)c3cccc(-n4ccnc4)c3)CC2)NC1=O | 3 | -0.41
44 | CCC(C)(Nc1ccc(Cl)cc1)c1nnnn1C(/C=C\c1ccc(Cl)cc1Cl)C(C)(C)C (stereo not given) | 1 | -0.17

Row | SMILES | % Inhibition [%] | Z score
45 | CC1CC(C)CN(C(C(=O)NC2CCCCC2)c2ccc(Cl)cc2)C1 (stereo not given) | 1 | -0.21
46 | Cc1nc(C(=O)N2CCC3(CC2)CC3(F)F)co1 | -10 | 1.28
47 | O=C(c1cc2n(n1)CCN(c1ccc3ccccc3n1)C2)N1CCCC1 | 2 | -0.32
48 | COc1ccc(-n2nc(C)c3sc(N4CCCN(C(=O)c5ccc(C)s5)CC4)nc32)cc1 | -7 | 1.31
49 | C[C@H]1OCC[C@H]1NC(=O)CCCc1cc(F)ccc1F | -19 | 2.51
50 | Cc1cnc(N2CCO[C@H](c3ccccc3)C2)nc1-c1cnn(C)c1 | -3 | 0.49
51 | CS(=O)(=O)C1(C(=O)N2CCC23CCC3)CCC1 | 1 | -0.18
52 | COC1CCN(C(=O)c2cc3c(s2)CCCCC3)CC1 | -10 | 1.76
53 | Cc1nc(C)c(F)c(NC2CCOC(c3ccnn3C)C2)n1 (stereo not given) | -8 | 0.89
54 | CN(C)c1ccc(NC(=O)c2ccc3c(c2)CCCC3)cn1 | -8 | 1
55 | COc1ccsc1S(=O)(=O)N(C)c1cccc(C)n1 | -11 | 1.91
56 | COc1cc(NC(=O)c2c(-c3ccccc3)noc2C)c(OC)cc1NC(=O)c1ccccc1 | 2 | -0.47
57 | CC(=O)Nc1ccc(C)c(NC(=O)N(C)CCc2noc(C)n2)c1 | -9 | 1.16
58 | O=C1CN(C(=O)C2CC2c2ccccc2C(F)(F)F)CCN1 (stereo not given) | 33 | -4.81
59 | CCOC(=O)c1nccc(N(C)CCc2cnccn2)n1 | -1 | 0.27
60 | CCOC(=O)N1CCC2(CCC(N3C[C@H](OC(C)C)[C@@H](O)C3)CC2)CC1 | -11 | 1.28
61 | CCCC(C#N)(CCC)NC(=O)[C@H](C)c1ccsc1 | 7 | -0.72
62 | COc1cc(NC(=O)c2cnc(N3CCCCC3)nc2C)cc(OC)c1 | -6 | 1.05
63 | Cc1cnn(C)c1S(=O)(=O)N[C@H](C1CCC1)C1CC1 | -2 | 0.3
64 | Cc1[nH]nc(C(=O)NCc2ccncc2)c1C | -9 | 0.92
65 | C[C@@H]1CN(CC(O)c2cccc(Cl)c2)CC(C(N)=O)O1 (stereo not given in full) | -13 | 1.72
66 | C#CCOc1cc(CNC(=O)C#CC)ccc1OC | -9 | 1.7

Row | SMILES | % Inhibition [%] | Z score
67 | CCOC(=O)C1CCN(Cc2cncc(-c3cc(F)ccc3OC)c2)CC1 | -4 | 0.39
68 | CCn1ncnc1CN1CCc2[nH]nc(-c3ccc(C(C)(C)C)cc3)c2C1 | -22 | 2.8
69 | CC1CC(CS(=O)(=O)N(C)[C@@H](C)c2ccncc2)C1 (stereo not given in full) | 1 | -0.27
70 | CCCC[C@H](CC)C(=O)NCCc1ccc(OC)c(OC)c1 | 2 | -0.22
71 | CCCCc1nn(CC(=O)NCc2ccc3nsnc3c2)c(=O)n1CC | -7 | 1.31
72 | COc1ccccc1CCC(=O)N1CCc2nn(C)c(=O)n2CC1 | -14 | 1.78
73 | CCOCCC(=O)NCC1(N2CCOCC2)CCCCCC1 | -10 | 1.92
74 | CCCn1nc(C(=O)N2CCCCC2)c2c1CC[C@H](N1CCN(CC)CC1)C2 | -12 | 1.36
75 | C=CCC[C@@H](CN(C)CCN(C)C)Oc1ncc(C)c(N(C)C)n1 | -8 | 1.59
76 | Cn1ncc(COc2ccc(CO)nc2)c1C(F)(F)F | -1 | 0.11
77 | C[C@H]1[C@@H](NC(=O)NC(c2ccncc2)C2CC2)CCS1(=O)=O (stereo not given in full) | -14 | 1.84
78 | COC(=O)[C@@H]1CCCN1C(=O)CC1(c2ccccc2)CC(=O)N(Cc2cccnc2)C1=O (stereo not given in full) | -8 | 1.14
79 | CC1(C)CCc2sc(N3CCOCC3)nc21 | 5 | -0.54
80 | Cc1c(C(=O)N2CCOCC2)c(S(=O)(=O)N2CCc3ccccc32)c(C)n1C | -11 | 2.08
81 | Cc1cccc(Cl)c1OCCN1C[C@H](O)[C@@H](N2CCCC2)C1 | -3 | 0.42
82 | CC1(C)CC(NC(=O)C2CCCCC2)CC(C)(C)N1 | -4 | 0.38
83 | CCCCn1c(N)c(N(Cc2ccco2)C(=O)COc2ccc(CC)cc2)c(=O)[nH]c1=O | -21 | 3.34
84 | CC[C@@H]1CCO[C@@H]1C(=O)N[C@@H](CC(=O)O)c1ccc2ccccc2c1 | 2 | -0.37
85 | COc1cc(C(=O)N2CCC(CC(=O)NCc3ccc(C)cc3)CC2)cc(OC)c1OC | 2 | -0.3
